#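 Test compounds were applied to cells in 96-well plates for 48 hours at 5 doses. At the GI50, growth is halved. TGI marks complete inhibition of growth.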
# Test system: NCI-H322M lung
# Experiment: NCI tumour cell line growth inhibition, 48 h
SMILES,GI50 [µM],TGI [µM]
CN1CCN(c2ccc(Nc3nc(NCCCNS(=O)(=O)c4cccc5ccccc45)c4sccc4n3)cc2)CC1,2.46,7.59
COc1cc(O)c2c(c1)[C@H]1O[C@@H]1C[C@H](O)[C@H](O)C(=O)/C=C\C[C@H](C)OC2=O,13.5,> 33.3
COc1cnc2c(c1)C(=O)c1c-2n(CCCn2ccnc2)c(=O)c2cc(OC)c(OC)cc12,1.04,7.63

# — PubChem BioAssay (NCI)
